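Where inhibition never reached the appropriate level, the endpoint shown equals the highest concentration tested. Otherwise, values were interpolated linearly from a five-concentration, 48-hour dose response in 96-well plates. GI50 = concentration required for 50% inhibition of growth.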 Calls of active or inactive are those of the source. Rule as the data show it: active = GI50 up to about 1.1 µM and inactive = higher.

This test has as its system NCI-H322M. The test can be described thus: NCI anticancer screen, dose series, 48 h.
Regarding `C[C@]12CC[C@H](O)C[C@@H]1CC[C@@H]1[C@@H]2CC[C@]2(C)[C@@H](C3=CC(=O)OC3)CC[C@]12O`, the GI50 was inactive: 3.21 µM.
Then `Clc1ccccc1C(Nc1cnccn1)Nc1cnccn1`, with inactive: > 100 µM; and `N#CC1CC(c2ccccc2)Nc2cc(Cl)ccc2N1` (stereo unspecified), with inactive: 64.7 µM.
For `O=C1C=C(C2OC(CO)C(O)C2O)C(=O)N1` (stereo unspecified), the GI50 is inactive: > 100 µM.
Then `O=C(O)CC(CC(=O)O)n1cccc1`, with inactive: > 100 µM; and `CCOc1ccc(C(CN2CCOCC2)C(C)=O)cc1OC` (stereo unspecified), with inactive: 67.5 µM.
`c1ccc(C2=NOC3COc4ccccc4OCC23)cc1` (stereo unspecified): the GI50 is inactive: > 100 µM.
In the case of `CSc1nc2ccccc2c(=O)n1/N=C1\C(=O)N(CN2CCCCC2)c2ccc(Cl)cc21` it was inactive: 49.3 µM; in that of `CCOC(=O)c1nc2ccc(Cl)cc2c2c1CCO2`, inactive: > 100 µM; in that of `CO/N=C(/C)c1cccc(Nc2nc3ccccc3c3[nH]c4ccccc4c23)c1`, inactive: 3.01 µM.
Turning to `CNS(=O)(=O)NNS(=O)(=O)c1ccc(F)cc1`, the GI50 was inactive: > 100 µM.
In the case of `N#CC(N)c1ccc(OCCCCCCCCCCOc2ccc(C(N)C#N)cc2)cc1` (stereo unspecified) it was inactive: > 100 µM; in that of `N#CC(C(=O)C(=O)NCCCNC(=O)C(=O)C(C#N)c1ccccc1)c1ccccc1` (stereo unspecified), inactive: > 100 µM; in that of `O=C1C(Cl)C(c2ccccc2Cl)N1n1cnc2ccccc2c1=O` (stereo unspecified), inactive: 41.2 µM.
On to `N#CC(C#N)=CNC(N)=S`, for which the GI50 is inactive: > 100 µM.
`NC(=O)C[S+]([O-])CC(N)C(=O)O` (stereo unspecified): the GI50 is inactive: > 100 µM.
For `CCNC1=C(NC(=O)CCl)C(=O)c2ccccc2C1=O`, the GI50 is inactive: 18.8 µM.
`CCCCCCCCCCCCCCCCNC(=O)/C(=C\c1ccc(Cl)c(Cl)c1)NC(=O)c1ccccc1`: the GI50 was inactive: 51.4 µM.
In the case of `N#CCc1ccccc1/C(C#N)=C1/OC(=N)C(c2ccccc2CC#N)C1=O` (stereo unspecified) it was inactive: > 100 µM.
As to `CC(NC(=O)OC(C)(C)C)C(=O)NC1CCCC1` (stereo unspecified), the GI50 was inactive: > 100 µM.
`CCOC(=O)c1ccc(NCC#CCN2CCCCC2)cc1`: the GI50 was inactive: > 100 µM.
`O=C(CCO)OCCCCCC/C=C\CCCCCC/C=C\CCCCCCCCOC(=O)CCO`: the GI50 is inactive: 17.2 µM.
As to `CC[C@@]1(OC(=O)C(N)CCCCN)C(=O)OCc2c1cc1n(c2=O)Cc2cc3ccccc3nc2-1` (stereo partly specified), the GI50 is active: 0.121 µM.
Take `C=C1C(=O)O[C@H]2C[C@@H]1C(=O)CC(C)CCCC(C)=CCC[C@@]2(C)O` (stereo partly specified): the GI50 is inactive: > 25 µM.
As for `C[C@]12CC/C(=N\OCCN3CCCC3)C=C1CCC1C2CC[C@@]2(C)C1CC[C@]2(C)O` (stereo partly specified), the GI50 was inactive: 9.23 µM.
In the case of `C/C(=C\c1csc(C)n1)[C@@H]1C[C@@H]2O[C@@H]2CCC[C@H](C)[C@H](O)[C@@H](C)C(=O)C(C)(C)[C@@H](O)CC(=O)O1.C/C(=C\c1csc(C)n1)[C@@H]1C[C@@H]2O[C@]2(C)CCC[C@H](C)[C@H](O)[C@@H](C)C(=O)C(C)(C)[C@@H](O)CC(=O)O1`, the GI50 is active: 0.00524 µM.
As for `COC(=O)/C=C1/OC(c2ccc(OC)cc2)=C(Cl)C1=O`, the GI50 is inactive: 21.9 µM.
Take `CCOC(=O)c1nc2cc(Cl)ccc2[nH]c1=O`: the GI50 was inactive: > 100 µM.
In the case of `CC#CC1C2CCCC1(CSc1ccccc1)NC(=O)O2` (stereo unspecified) it was inactive: > 100 µM; in that of `NCCCCCS(=O)(=O)O`, inactive: > 100 µM.
Regarding `FC(F)(Sc1nc2ccccc2[nH]1)c1nc2ccccc2o1`, the GI50 was inactive: > 100 µM.
In the case of `C/N=c1\ss/c(=N\C(=S)N(C)C)n1-c1ccccc1`, the GI50 was inactive: > 100 µM.
On to `O=[N+]([O-])C(=C(Nc1ccccc1)Nc1ccccc1)C(Cl)=C(Cl)Cl`, for which the GI50 was inactive: 21 µM.
On to `O=C(O)CCC1c2[nH]c3ccccc3c2CCN1Cc1ccccc1` (stereo unspecified), for which the GI50 is inactive: > 100 µM.
Consider `O=C1OC(C2Cc3cc4c(cc3C2=O)CCC4)c2ccccc21` (stereo unspecified), for which the GI50 was inactive: 44.6 µM.
On to `CN1CCc2cc(N)cc3c2C1Cc1ccc2c(c1-3)OCO2` (stereo unspecified), for which the GI50 was inactive: 30.8 µM.
For the compound `O=S(=O)(CCCCl)SCCCCl`, the GI50 was inactive: > 79.6 µM.
In the case of `Cc1ccc(S(=O)(=O)n2cc(C=O)c(-c3cn(S(=O)(=O)c4ccc(C)cc4)cc3-c3cn(S(=O)(=O)c4ccc(C)cc4)cc3C=O)c2)cc1` it was inactive: 54.8 µM; in that of `C#CC1(O)CCCCCCCCC2(CCCCCCCC1)OCCO2`, inactive: 20.2 µM.
Then `C/C(=N/NC(N)=S)c1ccc[nH]1`, with inactive: > 100 µM; and `OC1(c2ccccc2)CSC2=Nc3ccccc3C3CCN1N23` (stereo unspecified), with inactive: 19.9 µM; and `CCOC(CCNCC(OCC)OCC)OCC`, with inactive: > 10 µM.
As for `CCOC(=O)C(C(=O)OCC)C(=O)c1ccccc1C(=O)c1ccccc1`, the GI50 was inactive: > 100 µM.
Regarding `CC1(C)C(O)OC(O)C1(C)C` (stereo unspecified), the GI50 is inactive: > 100 µM.
As to `CC1=NN(c2nc(N)nc(C(C)Sc3cc(Cl)c(C)cc3S(N)(=O)=O)n2)C(C)(C)C1` (stereo unspecified), the GI50 was inactive: > 10 µM.
As for `O=C1C(Cl)C(c2cccc(Br)c2)N1c1c(O)c(Cl)cc(Br)c1Cl` (stereo unspecified), the GI50 is inactive: 13.2 µM.
Take `Fc1ccc2c(c1)nc1n2C(c2c(F)cccc2F)SC1` (stereo unspecified): the GI50 was inactive: 78.9 µM.
Consider `Cn1c2c(c3ccccc31)CCN1C(=O)CCC21` (stereo unspecified), for which the GI50 was inactive: > 10 µM.
For `COc1ccc(Nc2nc(NNC(=O)Cc3ccccc3)nc(NNC(=O)c3ccncc3)n2)cc1`, the GI50 is inactive: > 10 µM.
With `Cc1ccccc1OC(C)C(=O)NN1C(=O)CC(=O)N(c2ccc(Cl)cc2)C1=S` (stereo unspecified), the GI50 was inactive: 34.8 µM.
Take `Cn1cnc(N2CCCC2)c(C#N)c1=S`: the GI50 is inactive: > 100 µM.
Then `COC(=O)c1c(C)cccc1C1CN=NC12Cc1cc(C)c(C)cc1C2=O` (stereo unspecified), with inactive: > 100 µM; and `COC(=O)C1(CCCCl)CCCN1C(=O)OC(C)(C)C` (stereo unspecified), with inactive: > 100 µM; and `NC(=O)C(=O)c1ncn(Cc2ccccc2)c1N`, with inactive: > 100 µM.
Regarding `CCOc1cc(NC(C)=O)ccc1C(=O)NN1C(=O)/C(=C/c2ccc(Cl)cc2)N=C1c1ccccc1`, the GI50 was inactive: > 100 µM.
`NNC(=O)CCC(=O)NC1C2CC3CC(C2)CC1C3` (stereo unspecified): the GI50 is inactive: > 100 µM.
On to `CCOC(=O)Cc1nc2ccccc2s1`, for which the GI50 is inactive: 22.9 µM.
In the case of `C/C(=N\c1cccc(Cl)c1)c1ccncc1`, the GI50 is inactive: 88.7 µM.
As to `O=P(Nc1ccc(Cl)cc1)(Oc1ccccc1)N(CCCl)CCCl` (stereo unspecified), the GI50 is inactive: > 100 µM.
Take `CC(=O)Nc1cccc2[nH]c3ccccc3c(=O)c12`: the GI50 was inactive: 24 µM.
With `C=C(Cl)/C(=C/Cl)CCC(Br)C(C)(C)Cl.C=C(Cl)/C(=C\Cl)CCC(Br)C(C)(C)Cl` (stereo unspecified), the GI50 is inactive: > 10 µM.
Regarding `O=C(O)CNS(=O)(=O)c1ccc(NC(=O)c2ccc([N+](=O)[O-])cc2)cc1`, the GI50 was inactive: > 100 µM.
As for `COC(=O)c1ccc(C)cc1C1CN=NC12Cc1c(C)cccc1C2=O` (stereo unspecified), the GI50 is inactive: 75.5 µM.
For `COC1(C)C(=O)N2C1N(C(=O)OC(C)(C)C)CC2(C)C` (stereo unspecified), the GI50 was inactive: > 100 µM.
Turning to `Cc1cc(/N=N/c2c(O)ccc3ccccc23)ccc1/N=N/c1cccc([N+](C)(C)C)c1`, the GI50 was inactive: 22.3 µM.
With `O=C1OC(=O)C2C3C=CC(C12)C1C2C=CC2C31` (stereo unspecified), the GI50 was inactive: > 100 µM.
`O=C1/C(=C\c2cccc(Oc3ccccc3)c2)SC(c2ccccc2)N1c1ccccc1` (stereo unspecified): the GI50 was inactive: > 100 µM.
`O=C1CC23CCCCCCCCCCC2(C1)CC(=O)C3` (stereo unspecified): the GI50 was inactive: 41.4 µM.
Then `COc1cccc2c1C(=O)c1c(O)c3c(c(O)c1C2=O)CC(O)(C(C)=O)CC3OC1OC(COC(C)=O)C(OC(C)=O)C(OC(C)=O)C1OC(C)=O` (stereo unspecified), with inactive: 93.5 µM; and `O=C1/C(=C/c2ccc3c(c2)OCO3)CCC1CN1CCOCC1` (stereo unspecified), with inactive: 16.5 µM; and `CC1(C)CN(c2ccccc2)C(=O)C1OC(=O)[C@@]1(C)C[C@@H]2C=C[C@H]1C2` (stereo partly specified), with inactive: 35.1 µM.
For `Cc1nc(-n2nc(-c3ccccc3)cc2-c2ccccc2)sc1C(=O)CC(=O)C(=O)Nc1ccc(Cl)c(Cl)c1`, the GI50 is inactive: > 10 µM.
As for `CN1CCC[N+](C)=C1c1ccccc1`, the GI50 was inactive: > 100 µM.
On to `COC(=O)[C@H](Cc1ccccc1)NP(=O)(O)OCC1C=CC(n2cc(C)c(=O)[nH]c2=O)O1` (stereo partly specified), for which the GI50 is inactive: > 100 µM.
In the case of `O=C1/C(=C/C=C/c2ccccc2)N=C(c2ccccc2)N1c1ccc(S(=O)(=O)Nc2nccs2)cc1`, the GI50 was inactive: 45.2 µM.
`O[C@]12CCCC[C@H]1CCC2`: the GI50 is inactive: > 100 µM.
`N=C(N)C(/N=N\c1ccccc1)C(N)=O` (stereo unspecified): the GI50 is inactive: > 100 µM.
As to `CCCCCCNC(=O)CCC(NC(=O)c1ccc(N(C)Cc2cnc3nc(N)nc(N)c3n2)cc1)C(=O)NCCCCCC` (stereo unspecified), the GI50 was inactive: > 100 µM.
For the compound `NCCCn1c2ccccc2c2c3c(c4c(c21)CCC(O)CC4)C(=O)NC3=O` (stereo unspecified), the GI50 was inactive: 3.25 µM.
Then `O=C1OC(c2ccc([N+](=O)[O-])cc2)=N/C1=C\c1ccc(Cl)cc1`, with inactive: > 100 µM; and `O=C(/C=C/c1ccccc1Br)c1ccccc1`, with inactive: 14.8 µM.
As for `CC1OC(CO)(n2cnc3c(N)ncnc32)C(O)C1O` (stereo unspecified), the GI50 is inactive: > 100 µM.
In the case of `O=C1CCC2(c3ccccc3)Nc3ccc(Cl)cc3N12` (stereo unspecified), the GI50 was inactive: > 100 µM.
Take `COc1ccc(-c2oc3c(OC)c(OC)c(OC)c(O)c3c(=O)c2OC)cc1OC`: the GI50 is inactive: 46.2 µM.
For `Cn1c(=O)nc2n(-c3cccc(Cl)c3)c3ccccc3nc-2c1=O`, the GI50 is inactive: 20.7 µM.
For `NS(=O)(=O)c1ccc(/C=C/c2cccc(O)c2)cc1`, the GI50 is inactive: > 100 µM.

These data come from ChEMBL document CHEMBL1201862, “PubChem BioAssay data set” (2004).
